Among all 310,000 compounds or so, about 14,000 (4.5%) showed an effect of 50% or more. The effect is printed as a negative number. This is one part of the list.
The compounds below were run against human ether-à-go-go-related gene (hERG) potassium channel (human, UniProt Q12809) (assay: primary screen, population patch clamp on CHO cells stably expressing hERG).
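Also: peak tail current of the secondary pulse compared with the same well before compound.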

Sequence of human ether-à-go-go-related gene (hERG) potassium channel (Q12809 whole entry, looked up): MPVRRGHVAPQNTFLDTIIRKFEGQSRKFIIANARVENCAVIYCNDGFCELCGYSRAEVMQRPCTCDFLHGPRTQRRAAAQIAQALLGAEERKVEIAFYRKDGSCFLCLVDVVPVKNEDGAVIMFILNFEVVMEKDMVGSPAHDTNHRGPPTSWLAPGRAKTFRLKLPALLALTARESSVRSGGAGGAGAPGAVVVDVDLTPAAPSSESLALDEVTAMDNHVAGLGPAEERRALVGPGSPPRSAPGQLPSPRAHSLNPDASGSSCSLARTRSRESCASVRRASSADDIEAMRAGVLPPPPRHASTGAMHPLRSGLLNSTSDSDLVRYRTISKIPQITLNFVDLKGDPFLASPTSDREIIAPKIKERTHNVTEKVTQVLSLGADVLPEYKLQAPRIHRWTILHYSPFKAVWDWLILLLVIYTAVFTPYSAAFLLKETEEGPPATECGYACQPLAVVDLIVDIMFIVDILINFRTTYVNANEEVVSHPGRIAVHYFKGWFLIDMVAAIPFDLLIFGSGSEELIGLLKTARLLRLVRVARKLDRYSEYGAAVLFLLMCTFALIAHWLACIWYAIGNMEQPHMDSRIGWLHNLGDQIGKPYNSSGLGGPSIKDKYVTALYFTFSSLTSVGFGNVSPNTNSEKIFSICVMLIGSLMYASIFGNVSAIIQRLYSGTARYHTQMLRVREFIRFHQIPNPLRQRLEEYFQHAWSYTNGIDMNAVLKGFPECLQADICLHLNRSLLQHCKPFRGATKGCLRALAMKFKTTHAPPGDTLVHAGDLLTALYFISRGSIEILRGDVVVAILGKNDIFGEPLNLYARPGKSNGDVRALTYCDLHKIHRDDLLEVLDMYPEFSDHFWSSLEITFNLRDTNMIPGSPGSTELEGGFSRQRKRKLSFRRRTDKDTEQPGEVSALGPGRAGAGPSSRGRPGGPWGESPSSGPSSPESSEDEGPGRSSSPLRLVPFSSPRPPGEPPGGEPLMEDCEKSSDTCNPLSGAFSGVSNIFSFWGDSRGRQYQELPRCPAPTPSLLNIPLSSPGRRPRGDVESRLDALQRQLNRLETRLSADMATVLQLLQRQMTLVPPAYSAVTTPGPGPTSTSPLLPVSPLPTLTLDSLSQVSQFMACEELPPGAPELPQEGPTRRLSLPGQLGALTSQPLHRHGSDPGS

Row | SMILES | hERG current change (%, negative = inhibition) at 10uM [%]
1 | Cc1cccc(NC(=S)NC(=O)C(c2ccccc2)c2ccccc2)n1 | 9.16
2 | CNCc1ccccc1Sc1ccc(OC)c(OC)c1.O=C(O)/C=C\C(=O)O | -18.3
3 | CCOc1cc(/C=N\Nc2ccc([N+](=O)[O-])cc2)ccc1OCC(=O)Nc1ccc(C)c(C)c1 | 12.9
4 | NNC(=O)Cn1c(-c2ccccc2)cc2ccccc21 | 15.2
5 | COC(=O)c1ccc(Nc2nnc(-c3ccc(C)c(S(=O)(=O)NCC4CCCO4)c3)c3ccccc23)cc1 (centres unmarked) | -6.16
6 | COC(=O)c1cccc(-n2nnnc2SCC(=O)Nc2cc(C)on2)c1 | 0.797
7 | CCC(C)(C)NC(=O)C(c1ccc(O)cc1)N(C(=O)Cn1nnc2ccccc21)c1ccc(NC(C)=O)cc1 (centres unmarked) | 7.17
8 | O=C(O)C1C2CCC(C2)C1C(=O)N1CCCC1 (centres unmarked) | 19.6
9 | COc1cccc(OC)c1C(=O)OCC(=O)Nc1cccnc1Cl | 4.27
10 | c1ccc(Cc2nn3c(C4COc5ccccc5O4)nnc3s2)cc1 (centres unmarked) | -8.76
11 | COC(CNC(=O)c1cn(C)c2ccc(S(=O)(=O)N(C)C3CCCCC3)cc2c1=O)OC | -21.5
12 | CC(C)C(=O)Nc1nnc(SCC(=O)Nc2ccc3c(c2)OCCO3)s1 | 6.24
13 | CCn1ncc(Br)c1C(=O)Nc1ccc(OC(F)(F)F)cc1 | -5.96
14 | c1ccc(Nc2c3c(nc4ncnn24)CCC3)cc1 | -54.5
15 | Cc1nn(CC(=O)N2CCCc3ccccc32)c(C)c1[N+](=O)[O-] | 4.33
16 | CN(C)c1ccc(C(=O)N2CCCC2)cc1 | 13.1
17 | Cc1nc2c3cc(F)ccc3n(CCN3CCCCC3)c2s1.Cl | -69.9
18 | O=C(CNC(=O)c1cccs1)N=Nc1c(O)[nH]c2ccc([N+](=O)[O-])cc12 | 5.11
19 | CC1=C(C(=O)Nc2ccc(C(=O)NCCC(C)C)cc2)SCCO1 | -2.09
20 | CC(C)[C@H](NS(=O)(=O)c1ccccc1)C(=O)OCC(=O)NC(=O)c1cccn1C | -10.4
21 | COc1ccc2[nH]c(=O)c(COC(=O)c3ccco3)cc2c1 | 17.6
22 | CCc1ccc(NC(=O)CSc2nnc(-c3n[nH]c4ccccc34)n2-c2ccccc2)cc1 | 41

Row | SMILES | hERG current change (%, negative = inhibition) at 10uM [%]
23 | CCn1c(SCC(=O)Nc2cccc(O)c2)nc2c1c(=O)n(C)c(=O)n2C | -1
24 | COc1ccc(N(C(=O)c2ccncc2)S(=O)(=O)c2cccc([N+](=O)[O-])c2)cc1 | -27.5
25 | COc1ccc([N+](=O)[O-])cc1N(CC(=O)NCCSc1ccccc1)S(C)(=O)=O | -30.4
26 | CCc1ccc(-n2c(SCC(=O)Nc3ccc(C(=O)O)cc3)nnc2-c2ccncc2)cc1 | -11.1
27 | COc1cc(NC(=O)CSc2nc(C3CC3)nc3ccccc23)cc(OC)c1 | 11.9
28 | COC(=O)c1sc(NC(=S)NC(=O)c2cccc(Br)c2)nc1C | -5.4
29 | O=C(Nc1ccccn1)C1CCN(c2ncnc3c2nc2n3CCCCC2)CC1 | -7.75
30 | CCn1c(CSc2ncccn2)nnc1SCC(=O)N1CCc2ccccc21 | -16.1
31 | COc1ccc(C2CC(C(F)(F)F)n3nc(C(=O)N(C)Cc4cn(C)nc4C)c(Cl)c3N2)cc1 (centres unmarked) | -14.7
32 | CCOC(=O)c1ccc(N2Cc3ccccc3C2=N)cc1 | -61.3
33 | Clc1ccc(COn2c(-c3ccc(Cl)cc3)nc3ccccc32)cc1 | 1.24
34 | CCC(C)NC(=O)COC(=O)c1ccc(Cl)cc1O (centres unmarked) | 50.7
35 | CCC(=O)Nc1c(C#N)c2nc3ccccc3nc2n1-c1ccccc1C | 25.2
36 | CN1CCN(C(=O)C2=C[C@@H](C(C)(C)C)C[C@@H](OCc3ccc(CO)cc3)O2)CC1 | 1.2
37 | COc1ccc(N2CC(NC(=O)N3CCN(C(=O)c4ccco4)CC3)CC2=O)cc1OC (centres unmarked) | 5.5
38 | COc1ccc(N2C(=O)C3CCCN3C2c2cccc(OC)c2)cc1 (centres unmarked) | -1.59
39 | Cc1ccc(/C=C2/NC(=O)N(c3ccccc3)C2=O)o1 | -1.61
40 | O=C(Cn1nc2sc3ccccc3n2c(=O)c1=O)c1cccs1 | 7.63
41 | Cn1ccnc1C(O)c1ccco1 (centres unmarked) | 4.09
42 | CCCCSc1nc(CCC)cc(=O)[nH]1 | -7.39
43 | O=[N+]([O-])c1ccc(Sc2ccc(F)cc2)nc1 | 11.2
44 | COc1cccc(NC(=O)CSc2ccc(-c3ccco3)nn2)c1 | -48.1

Row | SMILES | hERG current change (%, negative = inhibition) at 10uM [%]
45 | O=C(CCNC(=O)c1ccc([N+](=O)[O-])cc1)Nc1ccc(Cl)c(S(=O)(=O)N2CCOCC2)c1 | -66.2
46 | O=C1CCCC2=C1C1c3ccccc3C(=O)N1c1ccc(C(=O)c3ccccc3)cc1N2 (centres unmarked) | -47.6
47 | CC(=O)N1CCc2cc(S(=O)(=O)NCc3ccc(C)cc3)ccc21 | 6.24
48 | COCCCN1CN=C(NS(=O)(=O)c2ccc(C)cc2)NC1 | 13.3
49 | C#CCSC1=C(C#N)C(c2cccs2)C(C(=O)OCC)=C(C)N1 (centres unmarked) | 12.6
50 | COc1ccc(C2(CNC(=O)c3ccccc3)CCOCC2)cc1 | 12.1
51 | CC(C)CCNC(=O)NC(=O)COC(=O)c1cc(S(=O)(=O)N2CCOCC2)ccc1N1CCCCC1 | 1.53
52 | CC(=O)NCC1COc2ccccc2O1 (centres unmarked) | -4.37
53 | CC1CCCCN1C(=O)COC(=O)c1cccc(NS(=O)(=O)c2ccccc2)c1 (centres unmarked) | 0.629
54 | CCOC(=O)CC(NC(=O)CCc1c(C)nc2ncnn2c1C)c1ccc(OC(C)C)cc1 (centres unmarked) | -8.3
55 | Cc1ccc(OCC(=O)N(Cc2ccccc2)C(C)(C)C)c([N+](=O)[O-])n1 | -17.7
56 | O=C1OC(c2ccc(Cl)cc2)=N/C1=C\N1CC2CC(C1)c1cccc(=O)n1C2 (centres unmarked) | -72
57 | Nc1ccnc(C(F)(F)F)c1C(=O)c1ccccc1 | 5.02
58 | CC(=O)NS(=O)(=O)c1cccnc1Nc1cccc(Cl)c1C | 0.163
59 | CCOC(=O)C1(Cc2ccccc2)CCN(Cc2ccc(C3CCCCO3)s2)CC1 (centres unmarked) | -18.8
60 | CC1CCN(C(=O)C2CCCN(S(C)(=O)=O)C2)CC1 (centres unmarked) | 8.17
61 | COc1ccccc1NC(=O)N1CCN(c2ccc3nncn3n2)CC1 | -23.1
62 | CC(C)CC(=O)Nc1nnc(SCC(=O)NCc2ccc3c(c2)OCO3)s1 | 17.7
63 | Fc1ccccc1CSc1nnc(-c2cccnc2)o1 | 15.2
64 | C#Cc1ccc([C@H]2C=C(C(=O)N3CCOCC3)O[C@@H](OCC)[C@@H]2CCCO)cc1 | 6.65
65 | CCOc1nc(NC2CCCC2)nc(N2CCC(C)CC2)n1 | 1.15
66 | CC(=O)N1c2ccc(S(=O)(=O)N3CCC(C(=O)NCc4ccccc4)CC3)cc2CC1C (centres unmarked) | -9.09

Row | SMILES | hERG current change (%, negative = inhibition) at 10uM [%]
67 | COc1ccc(NC(=O)CC2SC(=NCC3CCCO3)NC2=O)cc1 (centres unmarked) | 0.267
68 | CCCCC(=O)Nc1ccc(C(=O)NNC(=S)NC(=O)c2ccccc2[N+](=O)[O-])cc1 | 16.3
69 | Cc1cc(C)c(CN2CCN(C(=O)Cn3ccc(NC(=O)OCc4ccccc4)nc3=O)CC2)c(C)c1 | -5.55
70 | CCOC(=O)c1c(S(=O)(=O)NCCc2ccc(OC)c(OC)c2)c(C)n(C)c1C | 4.97
71 | Cc1[nH]n(-c2ccc(Br)cc2)c(=O)c1C=Nc1ccc(S(=O)(=O)Nc2nccs2)cc1 | 20.1
72 | Cc1cc([N+](=O)[O-])ccc1NC(=O)c1cccc(NC(=O)C(C)C)c1 | 15.1
73 | CCOC(CCNC(=O)c1cn(CC(C)C)c(=O)c2c1c1ccccc1n2C)OCC | 7.61
74 | CC1=CC(C)(C)N2C(=O)C3(C(C#N)=C(N)Oc4cc(O)ccc43)c3cccc1c32 (centres unmarked) | 15.3
75 | CC(C)(C)OC1NS(=O)(=O)OCC1NCOC(Cl)(Cl)Cl (centres unmarked) | 9.18
76 | COc1ccc(/C=C2\N=C(c3ccccc3)NNC2=O)cc1 | 2.07
77 | O=C(NCCc1nc(-c2ccccc2)no1)c1ccccc1 | -3.86
78 | CN1CCN(S(=O)(=O)c2ccc(NC(=O)c3ccco3)cc2)CC1 | -13.4
79 | COc1ccccc1NC(=O)CCC(=O)OCc1cccc([N+](=O)[O-])c1 | 22.4
80 | CC(C)(C)C(=O)Cn1c(=O)n(CC2CCCO2)c(=O)c2ccccc21 (centres unmarked) | -11.5
81 | Cc1ccc(CNc2ncc(-c3ccccc3)n2C)o1.O=C(O)C(=O)O | -37
82 | O=C(CC1SC2=NCCN2C1=O)Nc1ccc(Cl)cc1 (centres unmarked) | 6.97
83 | Cc1cc(Cl)ccc1OCC(=O)N(Cc1cccs1)C1CCS(=O)(=O)C1 (centres unmarked) | -25.9
84 | O=S(=O)(Cc1ccc(Cl)cc1)Nc1ccc(Cl)cn1 | 21.5
85 | COc1ccc(S(=O)(=O)Oc2cccc(C(=S)N3CCOCC3)c2)cc1 | -14.7
86 | S=C(NCc1ccccc1)N1CCCCC1 | -1.03
